Measured values from the supplement of paper PMC3334620.
The full ranking holds about 33,000 sequences; the median of “E-score (-0.5 to 0.5)” is about -0.016, and the highest 2% start at about 0.31. Some of the results follow.

Biological target: Cst6 (UniProt P40535)
Test: PBM E-score (8-mer binding enrichment) (E-score (-0.5 to 0.5)); higher = stronger / more preferred TF binding; most listed sequences are background and not binding sites
Conditions: protein concentration: 200 nM; construct: GST-DNA-binding domain
Description: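 Universal 'all 10-mer' protein binding microarrays (Agilent AMADID 015681) probed with GST-tagged S. cerevisiae TFs (full-length or DBD) made by in vitro transcription/translation (PURExpress), about 100-200 nM. Bound TF was detected with fluorescent anti-GST. Each ungapped 8-mer (which stands for itself and its reverse complement) is scored by the PBM enrichment score (E-score), a modified Wilcoxon-Mann-Whitney statistic from -0.5 to +0.5, computed with the Universal PBM Analysis Suite. Scale: above 0.35 generally sequence-specific binding.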

Row | Sequence | PBM E-score
1 | CCTCCAAC | -0.235
2 | ACGATATA | 0.196
3 | CACAGAAG | 0.0182
4 | TCATCCGA | 0.242
5 | GGAAAGAC | -0.12
6 | AGTCCAAG | -0.217
7 | TCTATTAA | 0.212
8 | ATAAAAGG | 0.0584
9 | GAAATTTA | 0.184
10 | GCGACCTA | -0.133
11 | AGGACAAC | 0.0452
12 | CCTAAGCG | -0.0966
13 | GCTGGTGA | 0.227
14 | GCAATACC | -0.0122
15 | CGACGACA | -0.054
16 | AGGAGTCA | -0.118
17 | ACCACGGC | 0.11
18 | CGTTCGAG | 0.0678
19 | AATGTCGA | 0.139
20 | GGAAGAAC | 0.0432
21 | CAACAGTG | 0.0248
22 | ACACCCCA | -0.113
23 | ACTATGAG | 0.0505
24 | CGATTGAG | -0.0697

Row | Sequence | PBM E-score
25 | GAATTATA | 0.0923
26 | CTACTACA | 0.0792
27 | ACGACTAC | -0.155
28 | GCTGTGAC | 0.281
29 | TCTGTTCA | -0.00976
30 | CTATAGGA | -0.0303
31 | ATCCTCCA | -0.135
32 | ACGTGGCA | 0.0549
33 | CCGCCTCG | 0.0665
34 | ACCCACGG | -0.215
35 | AGGTTGTA | 0.126
36 | CGGGCTTC | -0.347
37 | ACAGGAAC | -0.137
38 | TTCATAAA | 0.212
39 | GGCGACGA | -0.204
40 | AAATGCGA | 0.0229
41 | GACTTATA | 0.152
42 | GCATTGTA | 0.047
43 | ATCTCGGA | -0.0515
44 | AGTGTCGA | -0.145
45 | CAATTGTC | 0.0392
46 | ACACTACG | 0.148
47 | CCTCCCAA | -0.193
48 | ACGCTGCT | -0.22

Row | Sequence | PBM E-score
49 | GAACTAGA | 0.114
50 | GGAGGAGA | -0.267
51 | CAAATTGC | 0.062
52 | CTTGAATA | 0.131
53 | GCTTCTAC | 0.00763
54 | AGCAATGG | -0.186
55 | GACCAGTC | -0.247
56 | ATGGTGAG | 0.0691
57 | AGGACAGA | -0.184
58 | CCGGTGAC | 0.335
59 | ACTAGCAC | -0.258
60 | CTCCGATA | -0.203
61 | AGTTGTAA | 0.0542
62 | ATTTTATA | 0.321
63 | AAGTAAAG | -0.172
64 | TAGGTAGA | -0.0478
65 | ATTCCCAG | -0.0227
66 | CCTTCAAA | 0.166
67 | TTGTCAAA | 0.115
68 | GTACTCAC | 0.0738
69 | AACCGTCA | 0.174
70 | CTGGCGAC | -0.325
71 | AACCTTCG | 0.0222
72 | CGTCTCTA | -0.206

Row | Sequence | PBM E-score
73 | ATATGCTA | -0.026
74 | GCAAATAA | 0.236
75 | GGATCGCA | -0.0877
76 | CCAGGAGA | -0.262
77 | CATGGAGA | -0.0561
78 | CCTGATAA | 0.0577
79 | CCCCTAAA | -0.269
80 | TAACGGTA | 0.0366
81 | TACTTTGA | 0.145
82 | GGGTCCGA | -0.185
83 | CCTAACAA | 0.188
84 | CATCGCTC | -0.0555
85 | CAGGCTGC | -0.135
86 | GTATTAAA | 0.243
87 | AAACTTAG | 0.0226
88 | ATCTGCCC | -0.326
89 | TCGATACA | 0.248
90 | CATAGATA | 0.101
91 | TTCGCGAA | 0.195
92 | CGGAAAGC | -0.05
93 | CCAAGTGA | 0.0744
94 | ATCGCACC | -0.00671
